Test results from the supplement of paper PMC4604168 (melanoma cell lines).
Some of the results follow. Single values are uncertain, as repeats are few or missing.

System: RVH-421
Assay: cell count relative to DMSO control; melanoma cells; higher = more viable cells
Conditions: library dose: low library concentration; 72 h
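Note: cell number obtained by counting DAPI-stained nuclei in high-throughput microscope images with image analysis software, screen run in 1,536-well plates.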

SMILES | cell count [%]
C[C@]12O[C@H](C[C@]1(O)CO)n1c3ccccc3c3c4c(c5c6ccccc6n2c5c31)CNC4=O [Lestaurtinib] + O=C(O)[C@@H]1[O][Sb](=[O])([O][Sb]2(=[O])[O][C@H]([C@H](O)CO)[C@H](O)[C@H](C(=O)O)[O]2)[O][C@H]([C@H](O)CO)[C@@H]1O [stibogluconate] (first compound 0.004 µM, partner dose 2 µM) | 113
C[C@]12O[C@H](C[C@]1(O)CO)n1c3ccccc3c3c4c(c5c6ccccc6n2c5c31)CNC4=O [Lestaurtinib] + O=C(O)c1ccc2c(c1)nc(Nc1cccc(Cl)c1)c1ccncc12 [CX4945] (first compound 0.004 µM, partner dose 0.4 µM) | 135
C[As](C)SC[C@H](NC(=O)CC[C@H](N)C(=O)O)C(=O)NCC(=O)O [Darinaparsin] + O=C1NC(=O)/C(=C/c2ccc(-c3ccc(F)cc3O)o2)S1 [AS252424] (first compound 0.4 µM, partner dose 1 µM) | 97.4
C[C@]12O[C@H](C[C@]1(O)CO)n1c3ccccc3c3c4c(c5c6ccccc6n2c5c31)CNC4=O [Lestaurtinib] + CC(C)C[C@H](NC(=O)[C@H](Cc1ccccc1)NC(=O)c1cnccn1)B(O)O [Bortezomib] (first compound 0.004 µM, partner dose 0.001 µM) | 114
C[C@]12O[C@H](C[C@]1(O)CO)n1c3ccccc3c3c4c(c5c6ccccc6n2c5c31)CNC4=O [Lestaurtinib] + N.N.[Cl][Pt][Cl] [cisplatin] (first compound 0.004 µM, partner dose 1.6 µM) | 123
C[C@]12O[C@H](C[C@]1(O)CO)n1c3ccccc3c3c4c(c5c6ccccc6n2c5c31)CNC4=O [Lestaurtinib] + NC1(c2ccc(-c3nc4ccn5c(=O)[nH]nc5c4cc3-c3ccccc3)cc2)CCC1 [MK2206] (first compound 0.004 µM, partner dose 0.4 µM) | 82.9
C[C@]12O[C@H](C[C@]1(O)CO)n1c3ccccc3c3c4c(c5c6ccccc6n2c5c31)CNC4=O [Lestaurtinib] + C[C@]1(O)C[C@@H](c2nc(-c3ccc4ccc(-c5ccccc5)nc4c3)c3c(N)nccn32)C1 [OSI906] (first compound 0.004 µM, partner dose 0.4 µM) | 95.9
C[C@]12O[C@H](C[C@]1(O)CO)n1c3ccccc3c3c4c(c5c6ccccc6n2c5c31)CNC4=O [Lestaurtinib] + C=C(c1ccc(C(=O)O)cc1)c1cc2c(cc1C)C(C)(C)CCC2(C)C [Bexarotene] (first compound 0.004 µM, partner dose 2 µM) | 76.3
C[C@]12O[C@H](C[C@]1(O)CO)n1c3ccccc3c3c4c(c5c6ccccc6n2c5c31)CNC4=O [Lestaurtinib] + CN1CCN(c2ccc3nc(-c4c(N)c5c(F)cccc5[nH]c4=O)[nH]c3c2)CC1 [Dovitinib] (first compound 0.004 µM, partner dose 0.1 µM) | 90.2
C[C@]12O[C@H](C[C@]1(O)CO)n1c3ccccc3c3c4c(c5c6ccccc6n2c5c31)CNC4=O [Lestaurtinib] + CCCCCCCCc1ccc(CCC(N)(CO)CO)cc1 [fingolimod] (first compound 0.004 µM, partner dose 2 µM) | 97.6
C[C@]12O[C@H](C[C@]1(O)CO)n1c3ccccc3c3c4c(c5c6ccccc6n2c5c31)CNC4=O [Lestaurtinib] + CNC(=O)c1cc(Oc2ccc(NC(=O)Nc3ccc(Cl)c(C(F)(F)F)c3)cc2)ccn1 [sorafenib] (first compound 0.004 µM, partner dose 0.4 µM) | 79.2
N.N.[Cl][Pt][Cl] [cisplatin] + CO[C@H]1C[C@@H]2CC[C@@H](C)[C@@](O)(O2)C(=O)C(=O)N2CCCC[C@H]2C(=O)O[C@H]([C@H](C)C[C@@H]2CC[C@@H](OCCO)[C@H](OC)C2)CC(=O)[C@H](C)/C=C(\C)[C@@H](O)[C@@H](OC)C(=O)[C@H](C)C[C@H](C)/C=C/C=C/C=C/1C [everolimus] (first compound 1.6 µM, partner dose 0.02 µM) | 78.6
C[C@]12O[C@H](C[C@]1(O)CO)n1c3ccccc3c3c4c(c5c6ccccc6n2c5c31)CNC4=O [Lestaurtinib] + C=CCNC1=C2C[C@@H](C)C[C@H](OC)[C@H](O)[C@@H](C)/C=C(\C)[C@H](OC(N)=O)[C@@H](OC)/C=C\C=C(/C)C(=O)NC(=CC1=O)C2=O [Tanespimycin] (first compound 0.004 µM, partner dose 0.002 µM) | 107
C[C@]12O[C@H](C[C@]1(O)CO)n1c3ccccc3c3c4c(c5c6ccccc6n2c5c31)CNC4=O [Lestaurtinib] + COc1ccc(Cl)c(Nc2nc3ccccc3nc2NS(=O)(=O)c2cccc(NC(=O)C(C)(C)N)c2)c1 [XL147] (first compound 0.004 µM, partner dose 0.8 µM) | 86.3
C[C@]12O[C@H](C[C@]1(O)CO)n1c3ccccc3c3c4c(c5c6ccccc6n2c5c31)CNC4=O [Lestaurtinib] + CCN(CC)CCNC(=O)c1c(C)[nH]c(/C=C2\C(=O)Nc3ccc(F)cc32)c1C [sunitinib] (first compound 0.004 µM, partner dose 0.4 µM) | 112
C[C@]12O[C@H](C[C@]1(O)CO)n1c3ccccc3c3c4c(c5c6ccccc6n2c5c31)CNC4=O [Lestaurtinib] + CS(=O)(=O)c1ccc(C(=O)Nc2ccc(Cl)c(-c3ccccn3)c2)c(Cl)c1 [vismodegib] (first compound 0.004 µM, partner dose 1 µM) | 92
C[As](C)SC[C@H](NC(=O)CC[C@H](N)C(=O)O)C(=O)NCC(=O)O [Darinaparsin] + Cn1cc(/C=C2\C(=O)Nc3cccnc32)c2ccccc21 [GW441756] (first compound 0.4 µM, partner dose 0.4 µM) | 95.1
C[C@]12O[C@H](C[C@]1(O)CO)n1c3ccccc3c3c4c(c5c6ccccc6n2c5c31)CNC4=O [Lestaurtinib] + CC(=O)c1c(C)c2cnc(Nc3ccc(N4CCNCC4)cn3)nc2n(C2CCCC2)c1=O [palbociclib] (first compound 0.004 µM, partner dose 0.04 µM) | 85
C[C@]12O[C@H](C[C@]1(O)CO)n1c3ccccc3c3c4c(c5c6ccccc6n2c5c31)CNC4=O [Lestaurtinib] + Nc1nc(F)nc2c1ncn2[C@@H]1O[C@H](CO)[C@@H](O)[C@@H]1O [fludarabine] (first compound 0.004 µM, partner dose 0.2 µM) | 99.1
Cn1cc(C2=C(c3cn(C4CCN(Cc5ccccn5)CC4)c4ccccc34)C(=O)NC2=O)c2ccccc21 [Enzastaurin] + C[C@]12O[C@H](C[C@]1(O)CO)n1c3ccccc3c3c4c(c5c6ccccc6n2c5c31)CNC4=O [Lestaurtinib] (first compound 0.8 µM, partner dose 0.004 µM) | 93.5
C[C@]12O[C@H](C[C@]1(O)CO)n1c3ccccc3c3c4c(c5c6ccccc6n2c5c31)CNC4=O [Lestaurtinib] + CS(=O)(=O)CCNCc1ccc(-c2ccc3ncnc(Nc4ccc(OCc5cccc(F)c5)c(Cl)c4)c3c2)o1 [lapatinib] (first compound 0.004 µM, partner dose 0.8 µM) | 106
C[C@]12O[C@H](C[C@]1(O)CO)n1c3ccccc3c3c4c(c5c6ccccc6n2c5c31)CNC4=O [Lestaurtinib] + Clc1ccc(Nc2nnc(Cc3ccncc3)c3ccccc23)cc1 [vatalanib] (first compound 0.004 µM, partner dose 2 µM) | 143
C[C@]12O[C@H](C[C@]1(O)CO)n1c3ccccc3c3c4c(c5c6ccccc6n2c5c31)CNC4=O [Lestaurtinib] + Cc1cc(Nc2cc(N3CCN(C)CC3)nc(/C=C/c3ccccc3)n2)n[nH]1 [ENMD2076] (first compound 0.004 µM, partner dose 0.04 µM) | 63.6
C[C@]12O[C@H](C[C@]1(O)CO)n1c3ccccc3c3c4c(c5c6ccccc6n2c5c31)CNC4=O [Lestaurtinib] + C#Cc1cccc(Nc2ncnc3cc(OCCOC)c(OCCOC)cc23)c1 [erlotinib] (first compound 0.004 µM, partner dose 0.8 µM) | 92.6
C[C@]12O[C@H](C[C@]1(O)CO)n1c3ccccc3c3c4c(c5c6ccccc6n2c5c31)CNC4=O [Lestaurtinib] + Nc1ncn([C@H]2C[C@H](O)[C@@H](CO)O2)c(=O)n1 [decitabine] (first compound 0.004 µM, partner dose 0.1 µM) | 91.8
C[C@]12O[C@H](C[C@]1(O)CO)n1c3ccccc3c3c4c(c5c6ccccc6n2c5c31)CNC4=O [Lestaurtinib] + COCC[n+]1c2c(n(Cc3cnccn3)c1C)C(=O)c1ccccc1C2=O [YM155] (first compound 0.004 µM, partner dose 0.0004 µM) | 124
C[As](C)SC[C@H](NC(=O)CC[C@H](N)C(=O)O)C(=O)NCC(=O)O [Darinaparsin] + COC(=O)c1sccc1S(=O)(=O)Nc1ccc(Nc2ccccc2)cc1OC [GSK0660] (first compound 0.4 µM, partner dose 1 µM) | 79.8
C[C@]12O[C@H](C[C@]1(O)CO)n1c3ccccc3c3c4c(c5c6ccccc6n2c5c31)CNC4=O [Lestaurtinib] + C[C@]1(c2nc3c(C(N)=O)cccc3[nH]2)CCCN1 [Veliparib] (first compound 0.004 µM, partner dose 1.4 µM) | 97.8
C[As](C)SC[C@H](NC(=O)CC[C@H](N)C(=O)O)C(=O)NCC(=O)O [Darinaparsin] + O=C(Oc1ccc([N+](=O)[O-])cc1)N1CCC(C(O)(c2ccc3c(c2)OCO3)c2ccc3c(c2)OCO3)CC1 [JZL184] (first compound 0.4 µM, partner dose 1 µM) | 106
